Laboratory results reported in PubChem BioAssay AID588795 (National Center for Advancing Translational Sciences (NCATS), 2011).
Values joined by “and” are separate entries in the source; they are usually repeats but may differ in a detail not shown here. Equal entries are not always repeated. In all, about 390,000 compounds went through this assay and about 1,400 (0.36%) were called active. The inconclusive results got no clear call from the source; some entries with a clear call stand among them for comparison. The call rests on the fitted dose curve; in most records, active means well fitted inhibition curve with a large enough effect; inconclusive means small, poorly fitted or top-dose-only effect; inactive means no such curve, though single readings can be large or run the other way. Potencies of inconclusive entries are doubtful fits and often do not repeat.

The compounds below were run against Flap endonuclease 1 (Homo sapiens) (UniProt P39748) (assay: qHTS Assay for the Inhibitors of Human Flap endonuclease 1 (FEN1).). Conditions: Recombinant FEN1 flap cleavage, fluorescence, 15 min; series mostly up to 114 µM.
Procedure, shortened: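 Recombinant FEN1 (10 nM) was preincubated with pin-transferred compounds for 15 min at room temperature, then flap DNA substrate (50 nM final) was added. Plates were read at 0 and 15 min, and normalized concentration–response data were fitted to a four-parameter Hill equation.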
Further: nearly all actives have a fitted effect of over 65% in size.
Potency means the concentration at half of the fitted maximal effect; tags describe the fitted curve by direction and shape.

Chain of UniProt P39748 (P39748 whole entry, looked up): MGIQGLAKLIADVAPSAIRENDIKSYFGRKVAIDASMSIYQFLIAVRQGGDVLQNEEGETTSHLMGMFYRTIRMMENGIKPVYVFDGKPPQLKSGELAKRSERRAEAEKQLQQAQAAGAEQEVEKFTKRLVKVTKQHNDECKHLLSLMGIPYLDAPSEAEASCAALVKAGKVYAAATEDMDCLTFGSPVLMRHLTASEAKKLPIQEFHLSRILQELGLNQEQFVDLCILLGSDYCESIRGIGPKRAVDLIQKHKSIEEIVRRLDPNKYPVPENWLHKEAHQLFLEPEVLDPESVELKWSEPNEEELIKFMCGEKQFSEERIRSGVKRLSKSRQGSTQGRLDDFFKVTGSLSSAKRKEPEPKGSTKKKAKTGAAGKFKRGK

Compound | Potency
Nc1nonc1N/N=C/c1c(O)ccc2ccccc12 | inconclusive: 50.1 µM [inhibitor, partial curve]
Cc1ccc(Nc2nc(-c3sc(C)nc3C)cs2)cc1 | inconclusive: 17.8 µM [inhibitor, partial curve, poor fit]
COc1ccc(C(=O)/C=C/c2cn(CC(O)CN(CC(C)C)CC(C)C)c3ccccc23)cc1 (configuration not stated) | inconclusive: 79.4 µM [inhibitor, partial curve, poor fit]
COc1cc(/C=C2\CCC/C(=C\c3ccc(O)c(OC)c3)C2=O)ccc1O | inactive and inconclusive: 70.8 µM [inhibitor, single point]
CCCCS(=O)(=O)N1C2=NC(C(=O)OC)=C(C(=O)OC)[C@@H]3N(C)c4ccc(OC)cc4[C@]23C[C@H]1C(=O)OC | inconclusive: 89.1 µM [inhibitor, partial curve, poor fit]
CCn1c(=O)n(CC)c2cc(S(=O)(=O)N3CCC(c4ccccc4)CC3)ccc21 | inconclusive: 100 µM [inhibitor, partial curve, poor fit]
N#Cc1ccc(N=c2ssnc2Cl)cc1 | inconclusive: 89.1 µM [inhibitor, partial curve, poor fit] and inconclusive: 89.1 µM [inhibitor, single point]
Cc1ccc(Cl)c(NC(=O)Nc2csc3c2CCCC3)c1 | inactive
Cc1oc2c(C)c3oc(=O)c(CCC(=O)N4CCC(C(=O)NCCC(=O)O)(c5ccccc5)CC4)c(C)c3cc2c1C | inactive
O=C(O)/C=C/C(=O)Nc1ccc2c(c1)C(=O)c1ccccc1C2=O | inconclusive: 44.7 µM [inhibitor, partial curve]
COc1ccc(CCNC(=O)c2cc(Nc3cc(C)cc(C)c3)nc3ccccc23)cc1OC | inconclusive: 79.4 µM [inhibitor, partial curve, poor fit]
Cn1cnnc1Sc1ccc(C(=O)OCC(=O)Nc2ccccc2)cc1[N+](=O)[O-] | inconclusive: 1.26 µM [inhibitor, partial curve, poor fit]
Cc1nn(Cc2noc(C(=O)NC3CCC(C)CC3)n2)c(C)c1Br (configuration not stated) | inactive
Cc1noc(C)c1C(=O)Nc1ccc(-n2ccc(C(F)(F)F)n2)cc1 | inconclusive: 89.1 µM [inhibitor, partial curve]
CCOc1ccc(CC(=O)NCCc2csc(-c3ccc(C(F)(F)F)cc3)n2)cc1 | inactive
O=[N+]([O-])c1ccc(N=Cc2c(O)ccc3ccccc23)cc1 | inconclusive: 28.2 µM [inhibitor, single point]
Cc1cc(NC(=O)CN2C(=O)N(C)C3(CCCCC3)C2=O)ccc1Br | inconclusive: 44.7 µM [inhibitor, partial curve, poor fit]
Cc1ccc(O/C=C2/Nn3c(nnc3-c3cc(-c4ccccc4)n[nH]3)S2)cc1 | inactive
CC(=O)NC1C(=O)N(CCN2CCOCC2)c2ccc(Br)cc21 (configuration not stated) | inconclusive: 14.1 µM [inhibitor, partial curve, poor fit]
CC1CC(C)CN(c2nc(N(C)c3ccccc3)nc(N)c2[N+](=O)[O-])C1 (configuration not stated) | inconclusive: 39.8 µM [inhibitor, partial curve, poor fit]
CC1(C)CC(=O)c2c(Cc3ccccc3)noc2C1 | inactive

Compound | Potency
O=S1(=O)C=C(SCc2cccc(Cl)c2)Nc2ccccc21 | inconclusive: 112 µM [inhibitor, partial curve, poor fit]
CCN(CC)CCCNc1ccc2ncn3c4ccc(O)cc4c(=O)c1c23 | active: 10 µM
O=C(Cn1cnc2c(OCc3ccccc3)ncnc21)NCc1nc2ccccc2[nH]1 | inconclusive: 89.1 µM [inhibitor, single point]
OCCN(CCO)c1cc2c3ccccc3ccc2c2ccccc12 | inconclusive: 50.1 µM [inhibitor, partial curve, poor fit]
Cc1nnc(NS(=O)(=O)c2ccc(N=Nc3ccc(N)nc3N)cc2)s1 | inconclusive: 56.2 µM [inhibitor, partial curve, poor fit]
Cc1cc(C)c(CN2CCC(n3nccc3NC(=O)CCOc3ccccc3)CC2)cc1C | inconclusive: 79.4 µM [inhibitor, partial curve, poor fit]
O=C(/C=C/c1ccco1)Nc1cccc(C(=O)Nc2ccccc2C(=O)O)c1 | active: 50.1 µM
COc1ccc(C2=CC3=C(Br)C(=O)C(C)(O)C(=O)C3=CO2)cc1 (configuration not stated) | inactive
CCOc1ccccc1CNc1ncnc2c1nc1n2CCCC1 | inactive
CCC(CO)Oc1cc(NCc2cccc(OC)c2)c2ncn(C(C)C)c2c1 (configuration not stated) | inconclusive: 28.2 µM [inhibitor, single point]
CCOC(=O)c1[nH]c(C)c(/C(O)=C2\C(=O)C(=O)N(CCCn3ccnc3)C2c2ccncc2)c1C (configuration not stated) | inactive
Cc1csc(NC(=O)CSc2nc(C(C)C)nc3ccccc23)n1 | inactive
O=C(O)CC/C(=C\c1cccc(NC(=O)c2ccccc2Cl)c1)c1nc2ccccc2s1 | inactive
O=C(OCCN1CCOCC1)c1cccnc1 | inactive
COc1ccc(-n2nnc(-c3nsc(NC(=O)c4cccs4)n3)c2C)cc1OC | inactive
COc1cc2c(NC3CCN(C)CC3)nc(N3CCCN(C)CC3)nc2cc1OCC1CCCCN1 (configuration not stated) | active: 20 µM
CN(C)S(=O)(=O)c1cccc(-c2nn(-c3ccccc3)cc2/C=C2\SC(=S)N(CC(=O)O)C2=O)c1 | inconclusive: 50.1 µM [inhibitor, partial curve]
CCc1cccc(NC(=O)C2Cc3ccccc3N2C(=O)c2ccccc2)c1 (configuration not stated) | inactive
COc1cc(/C=C/c2nc(-c3ccccc3O)n[nH]2)cc(OC)c1OC | inconclusive: 50.1 µM [inhibitor, partial curve]
COc1ccc(CCn2c(O)cc3nn(-c4nc5ccccc5s4)c(=O)c-3c2C)cc1 | inconclusive: 70.8 µM [inhibitor, single point]
CSS(=O)(=O)c1cccc2cccnc12 | inconclusive: 100 µM [inhibitor, single point]
